Results from PubChem BioAssay AID504332 (National Center for Advancing Translational Sciences (NCATS), 2011).
About 31,000 (8.9%) of roughly 350,000 compounds were called active. Inconclusive results, whose numbers are uncertain, are shown with a selection of clear calls. Calls follow the shape of the dose curve; as a rule, active = well fitted inhibition curve with a large enough effect; inconclusive = small, poorly fitted or top-dose-only effect; inactive = no such curve, though single readings can be large or run the other way. Potencies of inconclusive entries are doubtful fits and often do not repeat.

Biological target: Histone-lysine N-methyltransferase EHMT2 (Homo sapiens) (UniProt Q96KQ7)
UniProt Q96KQ7, sequence (Q96KQ7 whole entry, looked up): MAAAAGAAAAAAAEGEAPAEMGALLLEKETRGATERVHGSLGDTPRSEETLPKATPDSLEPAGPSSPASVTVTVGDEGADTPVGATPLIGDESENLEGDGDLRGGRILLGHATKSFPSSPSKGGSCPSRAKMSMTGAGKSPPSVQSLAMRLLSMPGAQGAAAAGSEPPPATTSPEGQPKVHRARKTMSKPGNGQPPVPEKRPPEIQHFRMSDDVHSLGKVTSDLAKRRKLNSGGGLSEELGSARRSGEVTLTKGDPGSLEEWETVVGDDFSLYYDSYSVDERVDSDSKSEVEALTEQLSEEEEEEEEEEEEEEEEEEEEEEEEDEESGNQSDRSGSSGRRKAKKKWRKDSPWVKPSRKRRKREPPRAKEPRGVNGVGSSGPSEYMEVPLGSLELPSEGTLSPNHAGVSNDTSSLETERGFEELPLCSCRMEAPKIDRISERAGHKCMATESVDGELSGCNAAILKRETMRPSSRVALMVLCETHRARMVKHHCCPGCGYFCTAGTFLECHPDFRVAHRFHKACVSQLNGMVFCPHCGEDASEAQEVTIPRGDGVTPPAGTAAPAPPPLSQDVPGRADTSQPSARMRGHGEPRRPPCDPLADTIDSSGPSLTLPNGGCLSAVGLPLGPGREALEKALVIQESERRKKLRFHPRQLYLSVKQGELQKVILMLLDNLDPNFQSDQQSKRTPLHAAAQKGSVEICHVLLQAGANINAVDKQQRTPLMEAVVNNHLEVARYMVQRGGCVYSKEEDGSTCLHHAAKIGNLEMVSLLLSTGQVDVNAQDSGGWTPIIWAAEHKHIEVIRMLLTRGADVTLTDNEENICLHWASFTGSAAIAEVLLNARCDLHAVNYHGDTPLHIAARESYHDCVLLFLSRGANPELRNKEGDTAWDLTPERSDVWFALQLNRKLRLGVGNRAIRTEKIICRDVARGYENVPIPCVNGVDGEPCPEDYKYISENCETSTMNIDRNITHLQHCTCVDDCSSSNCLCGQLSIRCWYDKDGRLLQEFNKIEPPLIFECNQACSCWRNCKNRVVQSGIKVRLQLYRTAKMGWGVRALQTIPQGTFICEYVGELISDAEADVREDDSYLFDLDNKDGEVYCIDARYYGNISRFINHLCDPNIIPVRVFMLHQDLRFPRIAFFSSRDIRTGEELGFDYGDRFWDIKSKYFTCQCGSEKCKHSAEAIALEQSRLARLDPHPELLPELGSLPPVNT
Assay: qHTS Assay for Inhibitors of Histone Lysine Methyltransferase G9a; also: nearly all actives have a fitted effect of over 75% in size
Details: G9a H3K9 monomethylation, AlphaScreen, 2 h; activity, negative = inhibition: at 59 µM (top of the series) unless noted
Procedure, shortened: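 Enzyme 20 nM + cpd, 15 min RT; add b-H3K9 pep 500 nM / SAM 20 uM; 2 h RT; anti-H3K9me1 Ab 0.5 ug/mL + SA donor / anti-rabbit acceptor beads 20 ug/mL each, 10 min; AlphaScreen read.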
% is scaled to controls: 0 for no effect and ±100 for the full control effect; potency is read from the fitted curve at half-maximal effect; tags tell the direction and shape of the fitted curve.

Compound | activity, negative = inhibition | Potency
COc1cccc(-n2ccnc2SCC(=O)N2CCc3ccccc32)c1 | inconclusive: -71.3% [inhibitor] | –
O=C1C(=O)N(CCN2CCOCC2)C(c2ccccc2)/C1=C(\O)c1ccc2c(c1)OCCO2 (stereo not drawn) | – | inconclusive: 89.1 µM [inhibitor, single point]
CC(=O)OCC1=C(C(=O)O)N2C(=O)C(NC(=O)c3ccc(COc4c(C)cccc4Cl)o3)C2SC1 (stereo not drawn) | – | active: 44.7 µM
O=C(Nc1c(F)cc(F)cc1Br)c1cccnc1 | – | inconclusive: 3.16 µM [inhibitor, single point]
COc1cc(CNCCc2c[nH]c3ccccc23)ccc1OCc1ccc(F)cc1 | inconclusive: -68.8% [inhibitor] | –
Cc1ccc(C(C)(C)C)cc1S(=O)(=O)N1CCC(C(=O)N2CCN(c3ccc(O)cc3)CC2)CC1 | – | active: 0.794 µM
Cc1ccc(OCCC(=O)OCC(=O)NNC(=O)c2ccccc2)cc1 | – | inconclusive: 89.1 µM [inhibitor, partial curve, poor fit]
O=C(c1cc2ccccc2o1)N1CCN(S(=O)(=O)c2cccs2)CC1 | – | active: 15.8 µM
O=C(NCCCc1ccccc1)C1CCN(c2nnc(-n3cccc3)s2)CC1 | – | inconclusive: 89.1 µM [inhibitor, single point]
CC1CCN(S(=O)(=O)c2ccc3c(c2)c(=O)c(C(=O)N2CCOCC2)cn3C)CC1 | inactive: 44.2% [at 102 µM] | –
O=C1CC(C(=O)O)S/C(=N\NC(=O)c2ccccc2)N1 (stereo not drawn) | inconclusive: -99.2% [inhibitor] [at 12.7 µM] | –
O=C(C(c1ccccc1)c1ccccc1)N1CCN(Cc2ccncc2)CC1 | – | inconclusive: 39.8 µM [inhibitor, single point]
Cc1ccccc1-c1cc(C(=O)Nc2sc(C)c(C)c2C(N)=O)c2ccccc2n1 | – | inconclusive: 3.16 µM [inhibitor, single point]
Cc1cc(C)n2ncnc2n1 | – | active: 50.1 µM
CN(c1ccccc1)S(=O)(=O)c1ccc(Cl)c(C(=O)Nc2ccccc2N2CCOCC2)c1 | – | inconclusive: 79.4 µM [inhibitor, single point]
Cc1ccc(S(=O)(=O)NC(=O)c2cc(C)n(-c3ccccc3)c2C)cc1 | – | inconclusive: 79.4 µM [inhibitor, single point]
O=C(c1cnn2c(C(F)F)cc(-c3ccccc3)nc12)N1CCN(Cc2ccc3c(c2)OCO3)CC1 | inactive: -8.95% [at 102 µM] | –
O=C(CNC(=S)N(Cc1ccccc1F)C1CCCCC1)NC1CC1 | – | inconclusive: 89.1 µM [inhibitor, single point]
CCOc1cc(-c2nc3cc(C)ccn3c2NCC2CCCO2)ccc1O (stereo not drawn) | – | inconclusive: 4.47 µM [inhibitor, full curve, poor fit]
Cc1ccc2[nH]c3nc(SCCN4CCOCC4)nnc3c2c1 | – | inconclusive: 2.82 µM [inhibitor, single point]
O=C(C(c1ccccc1)c1ccccc1)N1CCN(CC(O)COc2ccccc2)CC1 (stereo not drawn) | – | inconclusive: 0.708 µM [inhibitor, full curve, poor fit]
COc1ccc(NC(=O)c2cc(CC(C)C)nc3ccccc23)cc1 | inactive: 0.132% [at 102 µM] | –

Compound | activity, negative = inhibition | Potency
CN(C)c1cccc2c1c(NC(=O)Nc1ccc(F)cc1F)nn2C | – | inconclusive: 31.6 µM [inhibitor, partial curve]
CCOC(=O)/C=C/C(=O)OCC(=O)Nc1ccc(Cl)cn1 | – | inconclusive: 70.8 µM [inhibitor, partial curve, poor fit]
Nc1nc(C2CC(=O)OC23CCCCC3)cs1 (stereo not drawn) | inactive: 2.28% | –
CCCn1c(SCC(=O)Nc2ccccc2C(=O)OC)nc2c1c(=O)n(C)c(=O)n2C | – | inconclusive: 31.6 µM [inhibitor, single point]
COC(=O)CN(C(=O)CSc1nnc(-c2cccc(OC)c2)o1)c1ccc(OC)cc1 | – | inconclusive: 25.1 µM [inhibitor, partial curve, poor fit]
CCOC(=O)c1c(NC(=O)c2cccnc2)sc(C)c1C | inactive: 21.6% | –
CCC(Sc1ncccc1C(=O)Oc1cccc([N+](=O)[O-])c1)C(=O)Nc1ccccc1OC (stereo not drawn) | – | inconclusive: 31.6 µM [inhibitor, single point]
COC(=O)c1cc(CSc2nc3ccccc3[nH]2)oc1C | – | inconclusive: 25.1 µM [inhibitor, single point]
COc1cc2ccccc2cc1C(=O)Nc1sc2c(c1C(N)=O)CCN(C(C)C)C2 | – | inconclusive: 56.2 µM [inhibitor, partial curve]
O=C(CSc1cccc[n+]1[O-])c1cc(Cl)ccc1Cl | – | inconclusive: 0.141 µM [inhibitor, full curve, poor fit]
COc1cc(C(=O)NCC(c2cccnc2)N2CCN(c3ccccc3)CC2)cc(OC)c1OC (stereo not drawn) | – | inconclusive: 50.1 µM [inhibitor, partial curve]
Cn1c(=O)n(-c2ccc(Br)cc2F)c(=O)c2sc3ccccc3c21 | – | inconclusive: 35.5 µM [inhibitor, single point]
C/C(CC(=O)Nc1ccc(Cl)c(C(F)(F)F)c1)=N\NC(N)=S | – | inconclusive: 44.7 µM [inhibitor, partial curve, poor fit]
Clc1ccc2c(c1)-c1[nH]ncc1CS2 | – | inconclusive: 11.2 µM [inhibitor, partial curve, poor fit]
Cc1cc(NC(=O)CSc2nnc(C3COc4ccccc4O3)n2N)no1 (stereo not drawn) | – | inconclusive: 0.141 µM [inhibitor, full curve, poor fit]
CCOC(=O)c1nn(-c2ccc(C)c(C)c2)c(=O)c2c(N)scc12 | – | active: 2 µM
COc1ccc(C2C(C(N)=O)=C(C)Nc3nc(CCCO)nn32)c(OC)c1 (stereo not drawn) | inactive: 5.14% | –
CCOC(=O)c1[nH]c2ccc(F)cc2c1NC(=O)c1cc(OC)c(OC)c(OC)c1 | inactive: -44.3% [at 12.7 µM] | –
C=CCNc1nc(-c2ccc([N+](=O)[O-])cc2)cs1 | – | inconclusive: 89.1 µM [inhibitor, single point]
c1ccc(-c2ccccc2OCCCN2CCCCCC2)cc1 | – | active: 3.55 µM
CCCCn1c(=O)[nH]c(=O)c2c1nc(Cn1ncc(Cl)c(Cl)c1=O)n2CCC | – | active: 35.5 µM
